# Laboratory results reported in patent publication US20210388082A1 (NEWBIO THERAPEUTICS, published 2021).
# T1: CD79b on the surface of human lymphoma cell lines (human, UniProt P40259 29-229)
# T1 sequence (looked up): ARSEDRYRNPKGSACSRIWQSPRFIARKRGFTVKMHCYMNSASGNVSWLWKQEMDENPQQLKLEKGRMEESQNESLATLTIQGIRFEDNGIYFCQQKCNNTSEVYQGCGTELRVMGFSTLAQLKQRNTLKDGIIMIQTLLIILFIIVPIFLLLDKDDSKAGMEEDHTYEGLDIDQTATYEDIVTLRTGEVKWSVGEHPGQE
# T2: recombinant human CD79b extracellular domain protein (human, UniProt P40259 29-159)
# T2 construct: Bought protein; also called CD79b ECD; human CD79b-ECD
# T2 sequence: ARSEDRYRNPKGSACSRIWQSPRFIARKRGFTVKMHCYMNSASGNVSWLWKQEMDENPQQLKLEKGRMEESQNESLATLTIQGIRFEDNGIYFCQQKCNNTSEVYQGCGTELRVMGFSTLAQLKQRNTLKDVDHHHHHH
# How the values were obtained:
# [1] = biological target: T1, CD79b on the surface of human lymphoma …; assay: cell-based or functional assay
# [2] = biological target: T2, recombinant human CD79b extracellular …; assay: indirect ELISA, plate coated with CD79b antigen
# Protocol: An ELISA anti-antibody was added to bind with the antibody or ADC antibody bound to the solid phase antigen, and unbound anti-antibody was removed by washing. Substrate solution was added, and then the optical density (OD) value at 450 nm/630 nm was read with a microplate reader T, based on which a curve was plotted, and the EC₅₀ was calculated.
# [3] = biological target: T1, CD79b on the surface of human lymphoma …; assay: cell-based or functional assay; remark: listed apart in the source
"inhibition of cell proliferation IC50, Ramos [1] [µg/mL]",EC50 [2] [µg/mL],"Inhibitory effect on the lymphoma cell proliferation IC50, BJAB [3] [µg/mL]","Inhibitory effect on the lymphoma cell proliferation IC50, DoHH2 [3] [µg/mL]","Inhibitory effect on the lymphoma cell proliferation IC50, Granta-519 [3] [µg/mL]","Inhibitory effect on the lymphoma cell proliferation IC50, Ramos [3] [µg/mL]","Inhibitory effect on the lymphoma cell proliferation IC50, SU_DHL-4 [3] [µg/mL]","Inhibitory effect on the lymphoma cell proliferation IC50, U-698-M [3] [µg/mL]","Inhibitory effect on the lymphoma cell proliferation IC50, WSU-DLCL2 [3] [µg/mL]",Binder
0.0055,0.0317,–,–,–,–,–,–,–,"AS11259-ADC-001 (other, DAR 4.0, linker-drug 1 (BMP-vcMMAE) on cysteines freed by TCEP reduction; positions not given, Antibody-drug conjugate of AS11259 (IgG1) with linker-drug 1; average DAR 4.0) heavy: QVQLVQSGAEVKKPGSSVKVSCKTSGNTFTSYGINWVKQAPGQGLEWIGEIFPRSGNIYYNEKFKGRVTITADKSTSTAYMELSSLRSEDTAVYYCAKGGTGDFDYWGQGTLVTVSS[human IgG1 constant region left out] light: DVVMTQSPLSLPVTLGQPASISCRSSQNIVHSDGNTYLEWYQQRPGQSPRLLIYKVSFRLSGVPDRFSGSGSGTDFTLKISRVEAEDVGVYYCFQGSHVPWTFGGGTKVEIKRTVAAPSVFIFPPSDEQLKSGTASVVCLLNNFYPREAKVQWKVDNALQSGNSQESVTEQDSKDSTYSLSSTLTLSKADYEKHKVYACEVTHQGLSSPVTKSFNRGEC"
0.0029,0.0322,–,–,–,–,–,–,–,"AS11259-ADC-004 (other, DAR 4.0, linker-drug 4 on cysteines freed by TCEP reduction; positions not given, Antibody-drug conjugate of AS11259 with linker-drug 4; average DAR 4.0) heavy: QVQLVQSGAEVKKPGSSVKVSCKTSGNTFTSYGINWVKQAPGQGLEWIGEIFPRSGNIYYNEKFKGRVTITADKSTSTAYMELSSLRSEDTAVYYCAKGGTGDFDYWGQGTLVTVSS[human IgG1 constant region left out] light: DVVMTQSPLSLPVTLGQPASISCRSSQNIVHSDGNTYLEWYQQRPGQSPRLLIYKVSFRLSGVPDRFSGSGSGTDFTLKISRVEAEDVGVYYCFQGSHVPWTFGGGTKVEIKRTVAAPSVFIFPPSDEQLKSGTASVVCLLNNFYPREAKVQWKVDNALQSGNSQESVTEQDSKDSTYSLSSTLTLSKADYEKHKVYACEVTHQGLSSPVTKSFNRGEC"
–,–,0.0104,0.0089,0.0334,0.00485,0.016,0.0215,0.0165,"AS11259-ADC (other, drug conjugate made by the method of Example 3 (BMP-vcMMAE); positions not given) heavy: QVQLVQSGAEVKKPGSSVKVSCKTSGNTFTSYGINWVKQAPGQGLEWIGEIFPRSGNIYYNEKFKGRVTITADKSTSTAYMELSSLRSEDTAVYYCAKGGTGDFDYWGQGTLVTVSS[human IgG1 constant region left out] light: DVVMTQSPLSLPVTLGQPASISCRSSQNIVHSDGNTYLEWYQQRPGQSPRLLIYKVSFRLSGVPDRFSGSGSGTDFTLKISRVEAEDVGVYYCFQGSHVPWTFGGGTKVEIKRTVAAPSVFIFPPSDEQLKSGTASVVCLLNNFYPREAKVQWKVDNALQSGNSQESVTEQDSKDSTYSLSSTLTLSKADYEKHKVYACEVTHQGLSSPVTKSFNRGEC"
–,–,0.0154,0.0086,0.0477,0.0083,0.0165,0.0192,0.024,"AS11254-ADC (other, drug conjugate made by the method of Example 3 (BMP-vcMMAE); positions not given) heavy: QVQLVQSGAEVKKPGASVKVSCKTSGNTFTSYGINWVKQAPGQGLEWMGEIFPRSGNIYYNEKFKGRVTITADKSTSTAYMELSSLRSEDTAVYYCAKGGTGDFDYWGQGTLVTVSS[human IgG1 constant region left out] light: DVVMTQSPLSLPVTLGQPASISCRSSQNIVHSDGNTYLEWYQQRPGQSPRLLIYKVSFRLSGVPDRFSGSGSGTDFTLKISRVEAEDVGVYYCFQGSHVPWTFGGGTKVEIKRTVAAPSVFIFPPSDEQLKSGTASVVCLLNNFYPREAKVQWKVDNALQSGNSQESVTEQDSKDSTYSLSSTLTLSKADYEKHKVYACEVTHQGLSSPVTKSFNRGEC"
–,–,0.0116,0.00801,0.0446,0.00478,0.0142,0.0248,0.0209,"AS11252-ADC (other, drug conjugate made by the method of Example 3 (BMP-vcMMAE); positions not given) heavy: QVQLVQSGAEVKKPGSSVKLSCKTSGNTFTSYGINWVKQAPGQGLEWIGEIFPRSGNIYYNEKFKGRVTITADKSTSTAYMELSSLRSEDTAVYYCAKGGTGDFDYWGQGTLVTVSS[human IgG1 constant region left out] light: DVVMTQSPLSLPVTLGQPASISCRSSQNIVHSDGNTYLEWYQQRPGQSPRLLIYKVSFRLSGVPDRFSGSGSGTDFTLKISRVEAEDVGVYYCFQGSHVPWTFGGGTKVEIKRTVAAPSVFIFPPSDEQLKSGTASVVCLLNNFYPREAKVQWKVDNALQSGNSQESVTEQDSKDSTYSLSSTLTLSKADYEKHKVYACEVTHQGLSSPVTKSFNRGEC"
–,–,0.0122,0.006,0.0315,0.00504,0.0159,0.0188,0.0159,"AS11161-ADC (other, drug conjugate made by the method of Example 3 (BMP-vcMMAE); positions not given) heavy: QVQLVQSGAEVKKPGSSVKVSCKTSGNTFTSYGINWVRQAPGQGLEWMGEIFPRSGNIYYNEKFKGKVTITADKSTSTAYMELSSLRSEDTAVYYCAKGGTGDFDYWGQGTLVTVSS[human IgG1 constant region left out] light: DVVMTQSPLSLPVTLGQPASISCRSSQNIVHSDGNTYLEWYQQRPGQSPRLLIYKVSFRLSGVPDRFSGSGSGTDFTLKISRVEAEDVGVYYCFQGSHVPWTFGGGTKVEIKRTVAAPSVFIFPPSDEQLKSGTASVVCLLNNFYPREAKVQWKVDNALQSGNSQESVTEQDSKDSTYSLSSTLTLSKADYEKHKVYACEVTHQGLSSPVTKSFNRGEC"
–,–,0.0153,0.00917,0.0486,0.0081,0.0176,0.0204,0.0246,"AS11164-ADC (other, drug conjugate made by the method of Example 3 (BMP-vcMMAE); positions not given) heavy: QVQLVQSGAEVKKPGSSVKVSCKTSGNTFTSYGINWVRQAPGQGLEWMGEIFPRSGNIYYNEKFKGKVTITADKSTSTAYMELSSLRSEDTAVYYCAKGGTGDFDYWGQGTLVTVSS[human IgG1 constant region left out] light: DVLMTQSPLSLPVTLGQPASISCRSSQNIVHSDGNTYLEWYQQRPGQSPKLLIYKVSFRLSGVPDRFSGSGSGTDFTLKISRVEAEDVGVYYCFQGSHVPWTFGGGTKVEIKRTVAAPSVFIFPPSDEQLKSGTASVVCLLNNFYPREAKVQWKVDNALQSGNSQESVTEQDSKDSTYSLSSTLTLSKADYEKHKVYACEVTHQGLSSPVTKSFNRGEC"
0.0145,0.0241,–,–,–,–,–,–,–,"AS11259-ADC-002 (other, linker-drug 2 on cysteines freed by TCEP reduction; positions not given, Antibody-drug conjugate of AS11259 with linker-drug 2; DAR not detected) heavy: QVQLVQSGAEVKKPGSSVKVSCKTSGNTFTSYGINWVKQAPGQGLEWIGEIFPRSGNIYYNEKFKGRVTITADKSTSTAYMELSSLRSEDTAVYYCAKGGTGDFDYWGQGTLVTVSS[human IgG1 constant region left out] light: DVVMTQSPLSLPVTLGQPASISCRSSQNIVHSDGNTYLEWYQQRPGQSPRLLIYKVSFRLSGVPDRFSGSGSGTDFTLKISRVEAEDVGVYYCFQGSHVPWTFGGGTKVEIKRTVAAPSVFIFPPSDEQLKSGTASVVCLLNNFYPREAKVQWKVDNALQSGNSQESVTEQDSKDSTYSLSSTLTLSKADYEKHKVYACEVTHQGLSSPVTKSFNRGEC"
0.0052,0.0469,–,–,–,–,–,–,–,"AS11259-ADC-005 (other, DAR 4.2, linker-drug 5 on cysteines freed by TCEP reduction; positions not given, Antibody-drug conjugate of AS11259 with linker-drug 5; average DAR 4.2) heavy: QVQLVQSGAEVKKPGSSVKVSCKTSGNTFTSYGINWVKQAPGQGLEWIGEIFPRSGNIYYNEKFKGRVTITADKSTSTAYMELSSLRSEDTAVYYCAKGGTGDFDYWGQGTLVTVSS[human IgG1 constant region left out] light: DVVMTQSPLSLPVTLGQPASISCRSSQNIVHSDGNTYLEWYQQRPGQSPRLLIYKVSFRLSGVPDRFSGSGSGTDFTLKISRVEAEDVGVYYCFQGSHVPWTFGGGTKVEIKRTVAAPSVFIFPPSDEQLKSGTASVVCLLNNFYPREAKVQWKVDNALQSGNSQESVTEQDSKDSTYSLSSTLTLSKADYEKHKVYACEVTHQGLSSPVTKSFNRGEC"
0.0702,0.0162,–,–,–,–,–,–,–,"AS11259-ADC-003 (other, linker-drug 3 on cysteines freed by TCEP reduction; positions not given, Antibody-drug conjugate of AS11259 with linker-drug 3 (DM1 based); DAR not detected) heavy: QVQLVQSGAEVKKPGSSVKVSCKTSGNTFTSYGINWVKQAPGQGLEWIGEIFPRSGNIYYNEKFKGRVTITADKSTSTAYMELSSLRSEDTAVYYCAKGGTGDFDYWGQGTLVTVSS[human IgG1 constant region left out] light: DVVMTQSPLSLPVTLGQPASISCRSSQNIVHSDGNTYLEWYQQRPGQSPRLLIYKVSFRLSGVPDRFSGSGSGTDFTLKISRVEAEDVGVYYCFQGSHVPWTFGGGTKVEIKRTVAAPSVFIFPPSDEQLKSGTASVVCLLNNFYPREAKVQWKVDNALQSGNSQESVTEQDSKDSTYSLSSTLTLSKADYEKHKVYACEVTHQGLSSPVTKSFNRGEC"
